Measured values reported in the supplement of paper PMC12355420.
Counter-ions that a name gives are not always drawn. The list shows a part of the results. No stated cut-off is given here; in the data, active = 0.5 or less and inactive = the rest. Single values are uncertain, as repeats are few or missing.

Assays:
Details in all cases: 50 µM; 24 h
[1] = system: HeLa VPS33A reporter cells; assay: relative cell viability (CellMask signal) vs DMSO (fraction of DMSO); higher = less cytotoxic;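 further: primary screen of an FDA-approved drug library in HeLa reporter cells in 96-well format, CellMask signal normalized to DMSO-treated wells set as 1, under 0.5 deemed highly cytotoxic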
[2] = system: HeLa VPS33A R498W KI + HA-SDC1-FLAG; assay: relative GAG core protein HA-SDC1 amount per cell number vs DMSO (fraction of DMSO); higher = more SDC1 (GAG core protein);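 further: HA-SDC1 level read out by In-Cell Western staining with an anti-HA antibody against the N-terminal tag, screening FDA-approved library drugs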
[3] = system: HeLa VPS33A KO + NLuc-VPS33A R498W; assay: relative mutant VPS33A R498W amount (NanoLuc luminescence) vs DMSO (fraction of DMSO); HeLa model of a glycosaminoglycan (GAG) storage disease; KI is knock-in and KO knock-out; SDC1 is syndecan 1; higher = higher mutant VPS33A level;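 further: screen of an FDA-approved drug library, NanoLuc luminescence read after lysing the treated cells, taken as a measure of mutant VPS33A protein stability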

Row | SMILES | relative cell viability [1] | relative GAG core protein HA-SDC1 amount per cell number [2] | relative mutant VPS33A R498W amount [3]
1 | N[C@@H](Cc1cc(I)c(Oc2ccc(O)c(I)c2)c(I)c1)C(=O)O [Liothyronine Sodium] | 0.872 | inactive: 0.653 | 0.688
2 | CCC1(c2ccccc2)C(=O)NCNC1=O [Primidone] | 0.993 | inactive: 0.869 | 1.62
3 | CCOC(=O)O[C@]1(C(=O)OCCl)CC[C@H]2[C@@H]3CCC4=CC(=O)C=C[C@]4(C)[C@H]3[C@@H](O)C[C@@]21C [Loteprednol etabonate] | 0.945 | inactive: 1.09 | 1.23
4 | COc1cc(C(=O)NS(=O)(=O)c2ccccc2C)ccc1Cc1cn(C)c2ccc(NC(=O)OC3CCCC3)cc12 [Zafirlukast] | 0.904 | active: 0.315 | 0.217
5 | C#C[C@]1(O)CC[C@H]2[C@@H]3CCc4cc(O)ccc4[C@H]3CC[C@@]21C [Ethinyl Estradiol] | 0.922 | active: 0.344 | 0.559
6 | C[N+](C)(C)CCCCCC[N+](C)(C)C [Hexamethonium Bromide] | 1.15 | inactive: 1.24 | 1.07
7 | CC(C)=CCC/C(C)=C/CC/C(C)=C/CC/C(C)=C/CC1=C(C)C(=O)c2ccccc2C1=O [Menaquinone 4] | 0.983 | inactive: 0.758 | 1.45
8 | COc1ccc2cc3[n+](cc2c1OC)CCc1cc2c(cc1-3)OCO2 [Berberine Sulfate] | 0.539 | active: 0.361 | 2.56
9 | O=c1ccc2ccc(O)cc2o1 [Umbelliferone] | 0.957 | inactive: 0.805 | 0.87
10 | Nc1nc(NC2CC2)c2ncn([C@H]3C=C[C@@H](CO)C3)c2n1 [Abacavir sulfate] | 1.11 | inactive: 0.882 | 0.616
11 | O=C(O)/C=C/c1ccc(O)c(O)c1 [Caffeic acid] | 1 | inactive: 1.09 | 1.18
12 | C[C@]12C=CC(=O)N[C@@H]1CC[C@@H]1[C@@H]2CC[C@]2(C)[C@@H](C(=O)Nc3cc(C(F)(F)F)ccc3C(F)(F)F)CC[C@@H]12 [Dutasteride] | 0.973 | inactive: 1.41 | 1.65
13 | CC(=O)O[C@H]1C[C@@]2(C)[C@@H](C[C@@H](O)[C@H]3[C@@]4(C)CC[C@@H](O)[C@@H](C)[C@@H]4CC[C@@]32C)/C1=C(\CCC=C(C)C)C(=O)O [Fusidic Acid (sodium salt)] | 1.03 | inactive: 0.799 | 0.426
14 | CC(C)NCC(O)COc1cccc2ccccc12 (stereo not drawn) [Propranolol HCl] | 1.11 | active: 0.443 | 0.481
15 | CC(C)c1nc(CN(C)C(=O)N[C@H](C(=O)N[C@@H](Cc2ccccc2)C[C@H](O)[C@H](Cc2ccccc2)NC(=O)OCc2cncs2)C(C)C)cs1 [Ritonavir] | 1.36 | inactive: 1.08 | 0.563
16 | CO/N=C(\C(=O)N[C@@H]1C(=O)N2C(C(=O)[O-])=C(C[N+]3(C)CCCC3)CS[C@H]12)c1csc(N)n1 [Cefepime Dihydrochloride Monohydrate] | 0.893 | inactive: 0.904 | 1.61
17 | CN(C)CCCN1c2ccccc2CCc2ccccc21 [Imipramine (hydrochloride)] | 0.963 | inactive: 0.816 | 0.352
18 | CN1CCc2cc3c(cc2C(=O)Cc2ccc4c(c2C1)OCO4)OCO3 [Protopine] | 0.963 | active: 0.378 | 0.757

Row | SMILES | relative cell viability [1] | relative GAG core protein HA-SDC1 amount per cell number [2] | relative mutant VPS33A R498W amount [3]
19 | O=C1Nc2ccc(Cl)cc2[C@@](C#CC2CC2)(C(F)(F)F)O1 [Efavirenz] | 0.565 | active: 0.485 | 0.00734
20 | CNCC[C@@H](Oc1ccccc1C)c1ccccc1 [Atomoxetine HCl] | 0.982 | inactive: 0.644 | 0.487
21 | Nc1c(Br)cc(Br)cc1CN[C@H]1CC[C@H](O)CC1 [Ambroxol HCl] | 1.04 | inactive: 0.57 | 0.812
22 | C[C@@H](O)[C@H](N)C(=O)O [L-Threonine] | 1.03 | inactive: 0.968 | 1.1
23 | CS(=O)(=O)Nc1ccc([N+](=O)[O-])cc1Oc1ccccc1 [Nimesulide] | 1.27 | inactive: 0.689 | 0.981
24 | Cc1nc(C(=O)NCC(=O)O)c(O)c2ccc(Oc3ccccc3)cc12 | 1.03 | inactive: 1.08 | 0.961
25 | O=C(NCCN1CCOCC1)c1ccc(Cl)cc1 | 1.07 | inactive: 1.29 | 1.11
26 | C#C[C@]1(O)CC[C@H]2[C@@H]3CCc4cc(OC5CCCC5)ccc4[C@H]3CC[C@@]21C [Quinestrol] | 0.915 | inactive: 0.785 | 1.09
27 | Cc1cc2nc3c(=O)[nH]c(=O)nc-3n(C[C@H](O)[C@H](O)[C@H](O)COP(=O)(O)OP(=O)(O)OC[C@H]3O[C@@H](n4cnc5c(N)ncnc54)[C@H](O)[C@@H]3O)c2cc1C [Flavin adenine dinucleotide disodium] | 1.08 | inactive: 0.839 | 0.721
28 | CNC(=O)c1cc(Oc2ccc(NC(=O)Nc3ccc(Cl)c(C(F)(F)F)c3)c(F)c2)ccn1 [Regorafenib monohydrate] | 0.65 | inactive: 0.576 | 0.128
29 | Nc1nccs1 [Aminothiazole] | 1.07 | inactive: 1.23 | 1.18
30 | Cc1cccc(Nc2ccccc2C(=O)O)c1C [Mefenamic Acid] | 1.16 | inactive: 0.888 | 1.08
31 | CC(=O)Nc1ccc(O)cc1 [Acetaminophen] | 0.927 | inactive: 0.916 | 1.11
32 | OC[C@H]1O[C@@H](Oc2ccc(O)cc2)[C@H](O)[C@@H](O)[C@@H]1O [Arbutin] | 0.995 | inactive: 0.958 | 1.3
33 | CC1(C)S[C@@H]2[C@H](NC(=O)[C@H](C(=O)O)c3ccsc3)C(=O)N2[C@H]1C(=O)O [Ticarcillin sodium] | 1.16 | inactive: 0.698 | 1.25
34 | O=C(O)c1cc(O)c2c(c1)[C@@H]([C@H]1c3cc(C(=O)O)cc(O)c3C(=O)c3c(O[C@@H]4O[C@H](CO)[C@@H](O)[C@H](O)[C@H]4O)cccc31)c1cccc(O[C@@H]3O[C@H](CO)[C@@H](O)[C@H](O)[C@H]3O)c1C2=O [Sennoside B] | 0.869 | inactive: 1.08 | 0.218
35 | O=c1[nH]c(=O)n([C@H]2C[C@H](O)[C@@H](CO)O2)cc1I [Idoxuridine] | 0.866 | inactive: 1.13 | 2.88
36 | C[C@@H](O)[C@H]1C(=O)N2C(C(=O)[O-])=C(SC3Cn4cnc[n+]4C3)[C@H](C)[C@H]12 (stereo partly drawn) [Biapenem] | 1.14 | inactive: 1.59 | 1.3
